Some of the results follow. Single values are uncertain, as repeats are few or missing.
Test system: 501Mel
Assay: cell count relative to DMSO control; melanoma cells; higher = more viable cells
Conditions: library dose: standard library concentration; 72 h
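Also: cells treated in 1,536-well plates, then fixed and DAPI-stained, with nuclei counted from automated high-throughput microscope images.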

Row | SMILES | cell count [%]
1 | Cc1nc(Nc2ncc(C(=O)Nc3c(C)cccc3Cl)s2)cc(N2CCN(CCO)CC2)n1 [dasatanib] + C/C(O)=C(\C#N)C(=O)Nc1cc(Br)ccc1Br [LFM-A13] (first compound 0.02 µM, partner dose 10 µM) | 83.7
2 | C[C@@H]1CCN(C(=O)CC#N)C[C@@H]1N(C)c1ncnc2[nH]ccc12 + Cc1cc(SCc2sc(-c3ccc(C(F)(F)F)c(F)c3)nc2C)ccc1OCC(=O)O [GW0742] (first compound 5 µM, partner dose 10 µM) | 111
3 | COCC[n+]1c2c(n(Cc3cnccn3)c1C)C(=O)c1ccccc1C2=O + Cc1cc(SCc2sc(-c3ccc(C(F)(F)F)c(F)c3)nc2C)ccc1OCC(=O)O [GW0742] (first compound 0.002 µM, partner dose 10 µM) | 77.5
4 | CC(C)C[C@H](NC(=O)[C@H](Cc1ccccc1)NC(=O)c1cnccn1)B(O)O [Bortezomib] + C/C(O)=C(\C#N)C(=O)Nc1cc(Br)ccc1Br [LFM-A13] (first compound 0.005 µM, partner dose 10 µM) | 7.73
5 | Oc1cc(-c2nc(-c3ccccc3)[nH]c2-c2ccncc2)ccc1Cl + O=C(Oc1ccc([N+](=O)[O-])cc1)N1CCC(C(O)(c2ccc3c(c2)OCO3)c2ccc3c(c2)OCO3)CC1 [JZL184] (first compound 1 µM, partner dose 5 µM) | 67.4

Test system: A101D
Assay: as above
Conditions: library dose: standard library concentration; 72 h

Row | SMILES | cell count [%]
6 | Cc1nc(Nc2ncc(C(=O)Nc3c(C)cccc3Cl)s2)cc(N2CCN(CCO)CC2)n1 [dasatanib] + Cc1cc(SCc2sc(-c3ccc(C(F)(F)F)c(F)c3)nc2C)ccc1OCC(=O)O [GW0742] (first compound 0.02 µM, partner dose 10 µM) | 75.8
7 | C#Cc1cccc(Nc2ncnc3cc(OCCOC)c(OCCOC)cc23)c1 [erlotinib] + O=C(Oc1ccc([N+](=O)[O-])cc1)N1CCC(C(O)(c2ccc3c(c2)OCO3)c2ccc3c(c2)OCO3)CC1 [JZL184] (first compound 4 µM, partner dose 5 µM) | 67.9
8 | O=C(O)c1ccc2c(c1)nc(Nc1cccc(Cl)c1)c1ccncc12 + Cc1cc(SCc2sc(-c3ccc(C(F)(F)F)c(F)c3)nc2C)ccc1OCC(=O)O [GW0742] (first compound 2 µM, partner dose 10 µM) | 73.4
9 | COc1cc2ncnc(Nc3ccc(Oc4ccccc4)cc3)c2cc1OC + C/C(O)=C(\C#N)C(=O)Nc1cc(Br)ccc1Br [LFM-A13] (first compound 10 µM, partner dose 10 µM) | 81.1
10 | CN1CCN(c2ccc3nc(-c4c(N)c5c(F)cccc5[nH]c4=O)[nH]c3c2)CC1 [Dovitinib] + C/C(O)=C(\C#N)C(=O)Nc1cc(Br)ccc1Br [LFM-A13] (first compound 0.5 µM, partner dose 10 µM) | 75.1
11 | C=CCn1c(=O)c2cnc(Nc3ccc(N4CCN(C)CC4)cc3)nc2n1-c1cccc(C(C)(C)O)n1 + Cc1cc(SCc2sc(-c3ccc(C(F)(F)F)c(F)c3)nc2C)ccc1OCC(=O)O [GW0742] (first compound 0.1 µM, partner dose 10 µM) | 66.3
12 | COc1ccc(COc2ccc(Cc3cnc(N)nc3N)cc2OC)cc1 + C/C(O)=C(\C#N)C(=O)Nc1cc(Br)ccc1Br [LFM-A13] (first compound 5 µM, partner dose 10 µM) | 95
13 | O=C(O)C(=O)Nc1sc2c(c1C(=O)O)CCNC2 + C/C(O)=C(\C#N)C(=O)Nc1cc(Br)ccc1Br [LFM-A13] (first compound 8.33333 µM, partner dose 10 µM) | 103
14 | COc1cc(N2CCC(N3CCN(C)CC3)CC2)ccc1Nc1ncc(Cl)c(Nc2ccccc2S(=O)(=O)C(C)C)n1 + O=C(Oc1ccc([N+](=O)[O-])cc1)N1CCC(C(O)(c2ccc3c(c2)OCO3)c2ccc3c(c2)OCO3)CC1 [JZL184] (first compound 0.4 µM, partner dose 5 µM) | 82.6
15 | O=C(CCCCCCC(=O)Nc1ccccc1)NO [vorinostat] + Cc1cc(SCc2sc(-c3ccc(C(F)(F)F)c(F)c3)nc2C)ccc1OCC(=O)O [GW0742] (first compound 0.4 µM, partner dose 10 µM) | 98
16 | C[C@@H]1CCN(C(=O)CC#N)C[C@@H]1N(C)c1ncnc2[nH]ccc12 + C/C(O)=C(\C#N)C(=O)Nc1cc(Br)ccc1Br [LFM-A13] (first compound 5 µM, partner dose 10 µM) | 123
17 | Cc1cc(Nc2cc(N3CCN(C)CC3)nc(Sc3ccc(NC(=O)C4CC4)cc3)n2)n[nH]1 [Tozasertib] + C/C(O)=C(\C#N)C(=O)Nc1cc(Br)ccc1Br [LFM-A13] (first compound 0.03 µM, partner dose 10 µM) | 96.8
18 | Oc1cc(-c2nc(-c3ccccc3)[nH]c2-c2ccncc2)ccc1Cl + C/C(O)=C(\C#N)C(=O)Nc1cc(Br)ccc1Br [LFM-A13] (first compound 1 µM, partner dose 10 µM) | 67.7
19 | Nc1ccn([C@@H]2O[C@H](CO)[C@@H](O)C2(F)F)c(=O)n1 [gemcitabine] + O=C(Oc1ccc([N+](=O)[O-])cc1)N1CCC(C(O)(c2ccc3c(c2)OCO3)c2ccc3c(c2)OCO3)CC1 [JZL184] (first compound 0.002 µM, partner dose 5 µM) | 78.5
20 | Clc1ccc(Nc2nnc(Cc3ccncc3)c3ccccc23)cc1 [vatalanib] + C/C(O)=C(\C#N)C(=O)Nc1cc(Br)ccc1Br [LFM-A13] (first compound 10 µM, partner dose 10 µM) | 83.4
21 | c1cc(-c2cnn3cc(-c4ccc(OCCN5CCCCC5)cc4)cnc23)ccn1 [Dorsomorphin] + O=C(Oc1ccc([N+](=O)[O-])cc1)N1CCC(C(O)(c2ccc3c(c2)OCO3)c2ccc3c(c2)OCO3)CC1 [JZL184] (first compound 2 µM, partner dose 5 µM) | 83.7
22 | CO[C@H]1C[C@@H]2CC[C@@H](C)[C@@](O)(O2)C(=O)C(=O)N2CCCC[C@H]2C(=O)O[C@H]([C@H](C)C[C@@H]2CC[C@@H](OCCO)[C@H](OC)C2)CC(=O)[C@H](C)/C=C(\C)[C@@H](O)[C@@H](OC)C(=O)[C@H](C)C[C@H](C)/C=C/C=C/C=C/1C [everolimus] + C/C(O)=C(\C#N)C(=O)Nc1cc(Br)ccc1Br [LFM-A13] (first compound 0.1 µM, partner dose 10 µM) | 76.6
23 | C=CCn1c(=O)c2cnc(Nc3ccc(N4CCN(C)CC4)cc3)nc2n1-c1cccc(C(C)(C)O)n1 + O=C(Oc1ccc([N+](=O)[O-])cc1)N1CCC(C(O)(c2ccc3c(c2)OCO3)c2ccc3c(c2)OCO3)CC1 [JZL184] (first compound 0.1 µM, partner dose 5 µM) | 76.7
24 | O=C(CCCCCCC(=O)Nc1ccccc1)NO [vorinostat] + C/C(O)=C(\C#N)C(=O)Nc1cc(Br)ccc1Br [LFM-A13] (first compound 0.4 µM, partner dose 10 µM) | 90.8
25 | Clc1ccc(Nc2nnc(Cc3ccncc3)c3ccccc23)cc1 [vatalanib] + O=C(Oc1ccc([N+](=O)[O-])cc1)N1CCC(C(O)(c2ccc3c(c2)OCO3)c2ccc3c(c2)OCO3)CC1 [JZL184] (first compound 10 µM, partner dose 5 µM) | 78
26 | CO[C@H]1C[C@@H]2CC[C@@H](C)[C@@](O)(O2)C(=O)C(=O)N2CCCC[C@H]2C(=O)O[C@H]([C@H](C)C[C@@H]2CC[C@@H](OCCO)[C@H](OC)C2)CC(=O)[C@H](C)/C=C(\C)[C@@H](O)[C@@H](OC)C(=O)[C@H](C)C[C@H](C)/C=C/C=C/C=C/1C [everolimus] + Cc1cc(SCc2sc(-c3ccc(C(F)(F)F)c(F)c3)nc2C)ccc1OCC(=O)O [GW0742] (first compound 0.1 µM, partner dose 10 µM) | 74.6
27 | C#Cc1cccc(Nc2ncnc3cc(OCCOC)c(OCCOC)cc23)c1 [erlotinib] + C/C(O)=C(\C#N)C(=O)Nc1cc(Br)ccc1Br [LFM-A13] (first compound 4 µM, partner dose 10 µM) | 68.6
28 | O=C(O)C(=O)Nc1sc2c(c1C(=O)O)CCNC2 + O=C(Oc1ccc([N+](=O)[O-])cc1)N1CCC(C(O)(c2ccc3c(c2)OCO3)c2ccc3c(c2)OCO3)CC1 [JZL184] (first compound 8.33333 µM, partner dose 5 µM) | 82.6
29 | Cc1cc(Nc2cc(N3CCN(C)CC3)nc(Sc3ccc(NC(=O)C4CC4)cc3)n2)n[nH]1 [Tozasertib] + O=C(Oc1ccc([N+](=O)[O-])cc1)N1CCC(C(O)(c2ccc3c(c2)OCO3)c2ccc3c(c2)OCO3)CC1 [JZL184] (first compound 0.03 µM, partner dose 5 µM) | 75.3
30 | CC(C)C[C@H](NC(=O)[C@H](Cc1ccccc1)NC(=O)c1cnccn1)B(O)O [Bortezomib] + O=C(Oc1ccc([N+](=O)[O-])cc1)N1CCC(C(O)(c2ccc3c(c2)OCO3)c2ccc3c(c2)OCO3)CC1 [JZL184] (first compound 0.005 µM, partner dose 5 µM) | 7.63
31 | Nc1ccn([C@@H]2O[C@H](CO)[C@@H](O)C2(F)F)c(=O)n1 [gemcitabine] + C/C(O)=C(\C#N)C(=O)Nc1cc(Br)ccc1Br [LFM-A13] (first compound 0.002 µM, partner dose 10 µM) | 79.7

From the supplement of paper PMC4604168 (melanoma cell lines)
